Measured values published in the supplement of paper PMC11417369.
± gives the standard deviation of the averaged measurements. The list shows a part of the results.

system: PfAP2-I AP2 domain 3 (GST-tagged); test: gcPBM binding intensity (ln(normalized median fluorescence intensity)); higher = stronger DNA binding
Outline: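 GST-tagged P. falciparum DNA-binding domains produced in E. coli were incubated for 1 h on an Agilent 4 × 180k array of primer-extended double-stranded 36-bp intergenic genomic probes with negative controls. Binding intensity is the highest Masliner-normalised natural-log median intensity across replicate spots of either probe orientation, with bound protein detected by Alexa488 anti-GST antibody at 488 nm.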

Sequence | gcPBM binding intensity (ln)
CAACAATTTCGTCATACACACATTCAGAATATATAT [CACACA_site2370] | 7.75 ± 0.52
TGAACTCATAGGAAAACACACATATGTGCAATATAT [CACACA_site6231] | 10.8 ± 0.54
ACAATGATAGTGTAAAGTACATATATATAAAAAAAT [XGTACX_site5928] | 8.11 ± 0.69
TGTTATTATTAAGACACACACACAAAAAAAAAAAAA [CACACA_site1481] | 8.12 ± 0.56
TTTATAATATGTTATACATGCAGGTACCTTTTTGTA [TGCATGCA_site746] | 7.76 ± 0.71
ATTTATAATTTTTGAGCACACACAAGCATATATATA [CACACA_site8531] | 8.33 ± 0.52
TTGTTCATCTTTTTTTTTTTTTTTTTTTTTTAAATC [CACACA_negctrl_site191] | 7.42 ± 0.53
TTTCAATGTGACACGTGTCCGTAAAATTACATAATT [XGTACX_site7073] | 7.92 ± 0.57
ATTAATAAAAGATAAAGTACAAATCGGAAAATGAAT [XGTACX_site7846] | 7.87 ± 0.73
AAGATTAAACATTGCACACAGAAATATATTTTCTAT [CACACA_site2374] | 8.64 ± 0.3
AATAATATATAAGAAAGTACAAAAAAATAAAATAAA [XGTACX_site3302] | 7.77 ± 0.67
AAAAAGAAAAAACTTACACACATATATACACCCATG [CACACA_site8079] | 7.9 ± 0.38
ATATCAAATAGACAAACACACAAAGGAAGAGTGAAA [CACACA_site3921] | 7.7 ± 0.83
TTCTTTTTTTTTTTTTTTTTTTTATAGTACAAAAAA [TGCATGCA_negctrl_site450] | 7.95 ± 0.18
ATCTATATTATTTCTACACACATATCTATAATATGT [CACACA_site7561] | 7.85 ± 0.72
TTTTTTTTTTTGTGTGCATGTGCTAGGAAAGGTAGG [TGCATGCA_site330] | 8.85 ± 0.11
TTTCTATTACGAACGTGTACATACATTATTCTTAAA [XGTACX_site5816] | 8.35 ± 0.24
TAGAAAAAAATAGATGCATGCAATGAATGAATAATA [TGCATGCA_site14] | 8.29 ± 0.9
ATATATTTTGGGGACTTTTTAAAAAAGAAGTATTAA [TGCATGCA_negctrl_site337] | 7.91 ± 0.51
TTTTTGTTAATAAGTATGCACTATCTCATTTTTGTA | 9.29 ± 0.2
CTATACTATGAAAAGTGTACGAATAGCTAGCTATTT [XGTACX_site5927] | 7.57 ± 0.73
TAGTAGTATTCATCCAGTACATATAAATGTATAATA [XGTACX_site7552] | 7.64 ± 0.38

Sequence | gcPBM binding intensity (ln)
GAGCATTACACATATACACACATATAAATAAACATA [CACACA_site7315] | 8.15 ± 0.34
GAGAAATTTATACATACACACATATAAATATTATAG [CACACA_site7819] | 7.64 ± 0.46
CTTTGCATTACGAACATACACACAGAATAACTGAAA [CACACA_site3024] | 8.43 ± 0.33
ATATATTTTTTTTATACATGCAATGCATTTACGTTG [TGCATGCA_site565] | 7.98 ± 0.99
TTTTTTTTTTTTTGAACACACATTATTAATTTTTAT [CACACA_site308] | 8.13 ± 0.73
TTTTTTATATATTAGGAATTTATAAAATTAGAAGGT [GTGCAC_negctrl_site617] | 8.15 ± 0.21
AACCAGTTGATGTGTACACATATAGTAATAATTTTA [CACACA_site5564] | 8.04 ± 0.43
GTATTAATTTTAAGGTGTACGCAAAAAATTTAATTT [XGTACX_site718] | 8.03 ± 0.29
ACGATTCAAAGGGAATATAAAATATTATTATCTATA [CACACA_negctrl_site1739] | 7.28 ± 0.47
AACCAATATGCGTATACACACATAAATATAAATATA [CACACA_site3780] | 7.79 ± 0.38
AATAGAATAATCCTTACACACACACCCACACGAATA [CACACA_site8053] | 8.275 ± 0.007
TATATTAACAAAATGGTGCAATAATTTCTATATTGT [GTGCAC_site9430] | 11.2 ± 0.54
TGTGTAAGCACATACAAACACACAACCTTATTTTTA [CACACA_site2187] | 8.4 ± 0.071
TTATTATATTAAAAGAGGACACATTTATTTTTTTTT [XGTACX_site1241] | 7.46 ± 0.39
AAAAAAAAAAAAAAAAAAAAAAAAAAAAATAAAAAA [CACACA_negctrl_site59] | 9.86
AAAATATTTAATAGAAGTACACATGTATATATACAT [XGTACX_site8942] | 7.76 ± 0.47
AGATCATAATATTATACACACATTATATATCTGTAA [CACACA_site4925] | 7.8 ± 0.59
TTTTGAATATATTAAATAAATTAAAAATCTACAAAC [GTGCAC_negctrl_site622] | 7.6 ± 0.59
TAATAAATTCAAAACATAAAAAGGAAAAAAAAAAAA [CACACA_negctrl_site1330] | 8.09 ± 1
TTATTATATACAAAATGTACACAGAATAATTTGAAT [XGTACX_site2314] | 7.84 ± 0.43
ATATATATATATATATGTACATAATATATTATATAT [XGTACX_site924] | 9.24 ± 0.67
TTTTTTTTTTTTTTGGTGCAGTTCACATATTATATA [GTGCAC_site9996] | 10.2 ± 0.78

Sequence | gcPBM binding intensity (ln)
ATTTTTTTTTAATGCAATATATTTTGAAAATTTTAT [CACACA_negctrl_site753] | 8.62 ± 0.27
TTTTTTTTTTTTTTTACACACTTTATTCAAACAACT [CACACA_site4104] | 8.2 ± 0.67
TAATATCTTGAGTCATCACACATTGATTAATGAATC [CACACA_site5735] | 7.27 ± 0.54
TGAATACAGATATTCACACAAATAGTTTTGATATAT [CACACA_site5527] | 7.32 ± 0.68
AAAAAAATATATAATAGTACATATATAGGAATATAT [XGTACX_site4591] | 7.58 ± 0.6
CTTTTTTTTTTTTTTGCACACACATATATAAATATA [CACACA_site3950] | 9.74 ± 0.042
AGTGGAAATTTTATTTGTACATAAATATTTACATAC [XGTACX_site633] | 7.92 ± 0.55
CTTTCTCTCAAAATGACATGCAATTTGTTTCTTTTT [TGCATGCA_site169] | 7.63 ± 0.93
ATATATATATATATTTGTACTTAATTGATTTTACTT [XGTACX_site2663] | 9.27 ± 0.22
ATGCGTTTAGCAAAAAGTACATATATATATAATATT [XGTACX_site1928] | 7.82 ± 0.49
TTGAAATACTTTATTTGTACATATAGCAAAGTGTAT [XGTACX_site8782] | 7.91 ± 0.52
ATTTTTTCTAGACATGCATGTGAAATTTACTTTTTT [TGCATGCA_site305] | 7.59 ± 0.7
ATTATTGATTTATAAACACACACTCGAAGATGTTTA [CACACA_site8294] | 7.58 ± 0.53
ACATATTGTAGATATTGTACATATTGTGTATATATT [XGTACX_site7620] | 7.72 ± 0.47
AATATGGAATGAAATAACAATCGGGAGTATATTACC [CACACA_negctrl_site93] | 7.97 ± 0.6
TATATATATGTTCTTACACACACGAATATATATATG [CACACA_site3304] | 7.98 ± 0.55
TTTTTTTTTTTTTTTTTTTTTTTTTCATATTAATAT [GTGCAC_negctrl_site351] | 8.21 ± 0.87
TTGGCATACAGACACACACACACACCCCCACATATA [CACACA_site590] | 8.99 ± 0.23
ATTGATACATCCAATACACACTACATATTATGATGT [CACACA_site6965] | 7.72 ± 0.56
AATTTATTAAAAAAATGTACTTATTTTTTTGTATAA [XGTACX_site5844] | 7.61 ± 0.11
TCCTTACATTTTAAAACACACAAAAATTAATTGTTA [CACACA_site2313] | 7.89 ± 0.37
AAAAAATAGTGGTATGCATGTCCCTTGTATTTTCTT [TGCATGCA_site587] | 7.96 ± 0.91

Sequence | gcPBM binding intensity (ln)
TACTTTTATATGAATACACACAGGAATATAAATATG [CACACA_site7647] | 7.7 ± 0.59
TGGATACACAAAAATTAAAAAAATAAACAAACAAAT [GTGCAC_negctrl_site105] | 7.84 ± 0.52
AAAATACCCATTTTAGTACACACTTAAAAAATTATT [CACACA_site8966] | 7.87 ± 0.47
ACCACCAGGAACAAAGCACATTAGGAAAAATAAAAC [XGTACX_negctrl_site228] | 8.29 ± 0.59
TATAAAAAATTAAAATTTTTCTTATTTTTTTTAGAT [TGCATGCA_negctrl_site125] | 7.33 ± 0.33
CATACATATATTATTGCACACATATAAAATACCCCC [CACACA_site9292] | 10.5 ± 0.45
TACCAATAAATGAAGGTGCGTGCTTGCCTTTGCTAT | 8.06 ± 0.73
TTGAATAAATTGGAATAAATATAATAAAATAAGGAA [XGTACX_negctrl_site302] | 7.79 ± 0.48
TTGTATAGTCTGATATGTACATATATATATATATAA [XGTACX_site4307] | 7.96 ± 0.36
TAGGAATTTAATAAATGTACATATACATAATATATA [XGTACX_site3672] | 7.45 ± 0.45
TATATATTTTTTAATTGTACACTTCAAAAACAAAAA [XGTACX_site5595] | 7.83 ± 0.18
ATAATCAACATTAGGTGTACAAAATATGTATGTTTT [XGTACX_site6696] | 8 ± 0.59
AGAATAAATAAATATTGTACATATAAAATATATATA [XGTACX_site896] | 7.87 ± 0.64
TTCAAATTTCCACATACACACCTTGTAGATATATAT [CACACA_site7984] | 7.97 ± 0.49
AAAAACTTAATATTGACACACATTTTTAAGAATAAT [CACACA_site4291] | 7.5 ± 0.59
ATTGAACACATCTATGCATGCACGGAAAAAAGTACA [TGCATGCA_site401] | 11 ± 0.28
TATGCAATATATTATATTCTGTAAATATTATATATT [TGCATGCA_negctrl_site67] | 7.55 ± 0.37
TTTTTTAAAATATGGACACACATATATATATCTGTA [CACACA_site5535] | 7.73 ± 0.47
TAATATTTCATTAGGTGTACACTACATAGTAGTAGA [XGTACX_site366] | 7.96 ± 0.16
TATAAATATTTTATTGTACACACTTTTTATGAATGA [CACACA_site3136] | 8.14 ± 0.29
GTTTGTTTGTTTGTTCGTACATATATAAAATAAAAA [XGTACX_site4731] | 8.28 ± 0.58
TATATAACTAAAATAACACACATATATAAAAATATA [CACACA_site7416] | 7.5 ± 0.46
